Results: the supplement of paper PMC10369915
Some of the results follow. Rule as the data show it: active = 3.2 or more and inactive = the rest. The signal is at background level for most entries.

What was measured:
Test in all cases: enrichment score (SH2-bound / input frequency) (ratio); bacterial display of known human phosphotyrosine sites (pTyr-Var adds point mutants) read by sequencing; higher = stronger binding; tyrosines were phosphorylated by kinases first
Conditions in all cases: peptide library: pTyr-Var
SHP2 C-SH2 domain E139D = target: SHP2 C-SH2 domain E139D
[1] = target: SHP2 C-SH2 domain wild-type
SHP2 N-SH2 domain L43F = target: SHP2 N-SH2 domain L43F
SHP2 N-SH2 domain T42A = target: SHP2 N-SH2 domain T42A
SHP2 N-SH2 domain T52S = target: SHP2 N-SH2 domain T52S
[2] = target: SHP2 N-SH2 domain wild-type
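Also: displayed peptides selected on beads carrying the immobilized SH2 domain, with library peptides lacking any tyrosine serving as negative controls.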

B1: FLT4_Y1230 (peptide)
chain: SLAARYYNWVS
Q: With B1 as the binder, how does the enrichment score (SHP2 C-SH2 domain E139D) read?
A: active: 4.12

Q: And the enrichment score [1]?
A: active: 3.72

Q: And the enrichment score (SHP2 N-SH2 domain L43F)?
A: active: 3.91

Q: What about the enrichment score (SHP2 N-SH2 domain T42A) of the same binder?
A: active: 3.6

Q: What about the enrichment score (SHP2 N-SH2 domain T52S) of the same binder?
A: active: 3.98

Q: And the enrichment score [2]?
A: active: 3.32

B2: FLNC_Y1602_T1599A_YF (peptide)
chain: TFAVSYLPDMS
Q: How did the enrichment score (SHP2 C-SH2 domain E139D) turn out when B2 was run?
A: inactive: 1.09

Q: What about the enrichment score [1] of the same binder?
A: inactive: 0.975

Q: What about the enrichment score (SHP2 N-SH2 domain L43F) of the same binder?
A: inactive: 1.22

Q: And the enrichment score (SHP2 N-SH2 domain T42A)?
A: inactive: 1.13

Q: What about the enrichment score (SHP2 N-SH2 domain T52S) of the same binder?
A: inactive: 1.34

Q: And the enrichment score [2]?
A: inactive: 1.27

B3: FLNA_Y287_G288R (peptide)
chain: KKARAYRPGIE
Q: How did the enrichment score (SHP2 C-SH2 domain E139D) turn out when B3 was run?
A: inactive: 0.321

Q: What about the enrichment score [1] of the same binder?
A: inactive: 0.247

Q: And the enrichment score (SHP2 N-SH2 domain L43F)?
A: inactive: 0.309

Q: And the enrichment score (SHP2 N-SH2 domain T42A)?
A: inactive: 0.252

Q: And the enrichment score (SHP2 N-SH2 domain T52S)?
A: inactive: 0.375

Q: What about the enrichment score [2] of the same binder?
A: inactive: 0.315

B4: FLOT1_Y56_S52N (peptide)
chain: KNEKVYTRHGV
Q: Which results are given for B4?
A: enrichment score (SHP2 C-SH2 domain E139D): inactive: 0.47; enrichment score [1]: inactive: 0.654; enrichment score (SHP2 N-SH2 domain L43F): inactive: 0.677; enrichment score (SHP2 N-SH2 domain T42A): inactive: 0.742; enrichment score (SHP2 N-SH2 domain T52S): inactive: 0.602; enrichment score [2]: inactive: 0.559

B5: FLNB_Y1530_A1534G (peptide)
chain: PGLSSYGVPGS
Q: How did the enrichment score (SHP2 C-SH2 domain E139D) turn out when B5 was run?
A: inactive: 0.817

Q: And the enrichment score [1]?
A: inactive: 0.717

Q: What about the enrichment score (SHP2 N-SH2 domain L43F) of the same binder?
A: inactive: 0.644

Q: What about the enrichment score (SHP2 N-SH2 domain T42A) of the same binder?
A: inactive: 0.543

Q: And the enrichment score (SHP2 N-SH2 domain T52S)?
A: inactive: 0.475

Q: What about the enrichment score [2] of the same binder?
A: inactive: 0.736

B6: FLT3_Y416_I417L (peptide)
chain: HQPGEYLFHAE
Q: Which results are given for B6?
A: enrichment score (SHP2 C-SH2 domain E139D): inactive: 0.749; enrichment score [1]: inactive: 1.16; enrichment score (SHP2 N-SH2 domain L43F): inactive: 0.916; enrichment score (SHP2 N-SH2 domain T42A): inactive: 0.718; enrichment score (SHP2 N-SH2 domain T52S): inactive: 0.949; enrichment score [2]: inactive: 1.03

B7: FLNA_Y1763_A1764T_YF (peptide)
chain: APQFTYTQGGQ
Q: For B7, which enrichment score (SHP2 C-SH2 domain E139D) is on record?
A: inactive: 0.81

Q: What about the enrichment score [1] of the same binder?
A: inactive: 0.59

Q: And the enrichment score (SHP2 N-SH2 domain L43F)?
A: inactive: 0.642

Q: What about the enrichment score (SHP2 N-SH2 domain T42A) of the same binder?
A: inactive: 0.706

Q: And the enrichment score (SHP2 N-SH2 domain T52S)?
A: inactive: 0.648

Q: What about the enrichment score [2] of the same binder?
A: inactive: 0.625

B8: FLNC_Y1602_T1599A (peptide)
chain: TYAVSYLPDMS
Q: With B8 as the binder, how does the enrichment score (SHP2 C-SH2 domain E139D) read?
A: inactive: 0.958

Q: And the enrichment score [1]?
A: inactive: 0.855

Q: What about the enrichment score (SHP2 N-SH2 domain L43F) of the same binder?
A: inactive: 1.14

Q: And the enrichment score (SHP2 N-SH2 domain T42A)?
A: inactive: 0.82

Q: And the enrichment score (SHP2 N-SH2 domain T52S)?
A: inactive: 0.991

Q: And the enrichment score [2]?
A: inactive: 0.806

B9: FLNB_Y1833_G1834R (peptide)
chain: GPGLVYRVANK
Q: B9 was tested. Which enrichment score (SHP2 C-SH2 domain E139D) did it give?
A: inactive: 0.813

Q: And the enrichment score [1]?
A: inactive: 0.742

Q: And the enrichment score (SHP2 N-SH2 domain L43F)?
A: inactive: 0.803

Q: And the enrichment score (SHP2 N-SH2 domain T42A)?
A: inactive: 0.679

Q: What about the enrichment score (SHP2 N-SH2 domain T52S) of the same binder?
A: inactive: 0.733

Q: What about the enrichment score [2] of the same binder?
A: inactive: 0.789

B10: FLT3_Y416 (peptide)
chain: HQPGEYIFHAE
Q: For B10, which enrichment score (SHP2 C-SH2 domain E139D) is on record?
A: inactive: 0.979

Q: What about the enrichment score [1] of the same binder?
A: inactive: 0.512

Q: And the enrichment score (SHP2 N-SH2 domain L43F)?
A: inactive: 0.949

Q: What about the enrichment score (SHP2 N-SH2 domain T42A) of the same binder?
A: inactive: 0.531

Q: What about the enrichment score (SHP2 N-SH2 domain T52S) of the same binder?
A: inactive: 1.15

Q: And the enrichment score [2]?
A: inactive: 1.51

B11: FLNC_Y2625_S2626N (peptide)
chain: SRGSSYNSIPK
Q: For B11, which enrichment score (SHP2 C-SH2 domain E139D) is on record?
A: inactive: 0.723

Q: What about the enrichment score [1] of the same binder?
A: inactive: 0.558

Q: What about the enrichment score (SHP2 N-SH2 domain L43F) of the same binder?
A: inactive: 0.511

Q: What about the enrichment score (SHP2 N-SH2 domain T42A) of the same binder?
A: inactive: 0.47

Q: And the enrichment score (SHP2 N-SH2 domain T52S)?
A: inactive: 0.423

Q: What about the enrichment score [2] of the same binder?
A: inactive: 0.619

B12: FLNB_Y1020 (peptide)
chain: AVDVTYDGHPV
Q: Which results are given for B12?
A: enrichment score (SHP2 C-SH2 domain E139D): inactive: 0.591; enrichment score [1]: inactive: 0.585; enrichment score (SHP2 N-SH2 domain L43F): inactive: 0.657; enrichment score (SHP2 N-SH2 domain T42A): inactive: 0.712; enrichment score (SHP2 N-SH2 domain T52S): inactive: 0.694; enrichment score [2]: inactive: 0.677

B13: FLOT1_Y56 (peptide)
chain: KSEKVYTRHGV
Q: With B13 as the binder, how does the enrichment score (SHP2 C-SH2 domain E139D) read?
A: inactive: 0.807

Q: What about the enrichment score [1] of the same binder?
A: inactive: 0.963

Q: And the enrichment score (SHP2 N-SH2 domain L43F)?
A: inactive: 0.665

Q: What about the enrichment score (SHP2 N-SH2 domain T42A) of the same binder?
A: inactive: 0.548

Q: And the enrichment score (SHP2 N-SH2 domain T52S)?
A: inactive: 0.637

Q: What about the enrichment score [2] of the same binder?
A: inactive: 0.892

B14: FLNB_Y704_YF (peptide)
chain: RMDGTYACSFT
Q: With B14 as the binder, how does the enrichment score (SHP2 C-SH2 domain E139D) read?
A: inactive: 0.623

Q: And the enrichment score [1]?
A: inactive: 1.02

Q: And the enrichment score (SHP2 N-SH2 domain L43F)?
A: inactive: 0.794

Q: What about the enrichment score (SHP2 N-SH2 domain T42A) of the same binder?
A: inactive: 0.93

Q: And the enrichment score (SHP2 N-SH2 domain T52S)?
A: inactive: 0.758

Q: What about the enrichment score [2] of the same binder?
A: inactive: 1.2

B15: FLT4_Y853_G857R (peptide)
chain: GRVLGYGAFRK
Q: Which results are given for B15?
A: enrichment score (SHP2 C-SH2 domain E139D): inactive: 0.354; enrichment score [1]: inactive: 0.237; enrichment score (SHP2 N-SH2 domain L43F): inactive: 0.242; enrichment score (SHP2 N-SH2 domain T42A): inactive: 0.317; enrichment score (SHP2 N-SH2 domain T52S): inactive: 0.247; enrichment score [2]: inactive: 0.313

B16: FLNA_Y319 (peptide)
chain: GEVLVYVEDPA
Q: B16 was tested. Which enrichment score (SHP2 C-SH2 domain E139D) did it give?
A: inactive: 0.627

Q: And the enrichment score [1]?
A: inactive: 0.663

Q: And the enrichment score (SHP2 N-SH2 domain L43F)?
A: inactive: 0.967

Q: What about the enrichment score (SHP2 N-SH2 domain T42A) of the same binder?
A: inactive: 1.41

Q: What about the enrichment score (SHP2 N-SH2 domain T52S) of the same binder?
A: inactive: 1

Q: What about the enrichment score [2] of the same binder?
A: inactive: 1.08

B17: FLT4_Y1333_YF (peptide)
chain: GGQVFYNSEFG
Q: Which results are given for B17?
A: enrichment score (SHP2 C-SH2 domain E139D): inactive: 1.1; enrichment score [1]: inactive: 1.21; enrichment score (SHP2 N-SH2 domain L43F): inactive: 1.19; enrichment score (SHP2 N-SH2 domain T42A): inactive: 1.12; enrichment score (SHP2 N-SH2 domain T52S): inactive: 1.17; enrichment score [2]: inactive: 1.22

B18: FLT4_Y853_A855T (peptide)
chain: GRVLGYGTFGK
Q: Which enrichment score (SHP2 C-SH2 domain E139D) does the source give for B18 here?
A: inactive: 1.16

Q: What about the enrichment score [1] of the same binder?
A: inactive: 1.38

Q: What about the enrichment score (SHP2 N-SH2 domain L43F) of the same binder?
A: inactive: 0.686

Q: What about the enrichment score (SHP2 N-SH2 domain T42A) of the same binder?
A: inactive: 1.08

Q: And the enrichment score (SHP2 N-SH2 domain T52S)?
A: inactive: 0.776

Q: And the enrichment score [2]?
A: inactive: 1.3

B19: FLNA_Y373 (peptide)
chain: SPFEVYVDKSQ
Q: For B19, which enrichment score (SHP2 C-SH2 domain E139D) is on record?
A: inactive: 0.584

Q: What about the enrichment score [1] of the same binder?
A: inactive: 0.942

Q: And the enrichment score (SHP2 N-SH2 domain L43F)?
A: inactive: 0.758

Q: And the enrichment score (SHP2 N-SH2 domain T42A)?
A: inactive: 1.15

Q: What about the enrichment score (SHP2 N-SH2 domain T52S) of the same binder?
A: inactive: 0.757

Q: And the enrichment score [2]?
A: inactive: 1.04
